From PubChem BioAssay AID662 (National Center for Advancing Translational Sciences (NCATS), 2007)
Hit rate of the full screen: of about 71,000 compounds, about 1,800 (2.5%) were called active. Inconclusive results, whose numbers are uncertain, are shown with a selection of clear calls. Calls come from the whole dose curve; as a rule, active = well fitted activation curve with a large enough effect in the signal ratio, with a control signal flat (not every such curve was filed as active); inconclusive = small, poorly fitted or top-dose-only effect, or effect the other way, or a change in a side signal; inactive = flat fitted curve, though single readings scatter; the % refers to the signal ratio. A potency beside an inconclusive call is a rough fit, not a confirmed value.

Assay: Cell signaling CRE-BLA (Fsk stim); for activity change, negative = inhibition: % of control where 0% means no effect
Settings: CHO CRE-bla reporter (cAMP response element driving beta-lactamase), forskolin EC10, beta-lactamase ratio; activity change, negative = inhibition: at 38.2 µM (top of the series) unless noted
How it was run: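 Reporter-gene assay: CHO cells with beta-lactamase behind cAMP responsive elements, co-treated with compound and EC10 NKH 477 for 3 hours at 37 degrees Celsius. Activity came from the 460/530 nm CCF4 emission ratio.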
Potency is the fitted concentration of half-maximal effect; tags give direction and shape of the fitted curve.

SMILES | activity change, negative = inhibition | Potency
O=C(Nc1ccccc1C(=O)N1CCCCC1)C1CCCCC1 | inconclusive: -17.7% | 
Cc1ccc(CNc2ncc(-c3ccc4c(c3)OCO4)n2C)cc1 | inconclusive: -13% | 
COC(=O)C1=C(C)N(CCC2=CCCCC2)C(=O)C1 | inconclusive: -27.1% | 
CCSc1nc2c(c(=O)n1Cc1ccccc1)SC(C)C2 (stereo unspecified) |  | inconclusive: 5.01 µM [rising, partial curve]
COC(=O)Cc1nc2ccccc2[nH]1 |  | inconclusive: 12.6 µM [rising, partial curve]
N#Cc1c(NC(=O)CSc2ncnc3sccc23)oc(-c2ccco2)c1-c1ccco1 |  | inconclusive: 10 µM [rising, single point]
CCCOc1ccc(C2C(=O)N(C3CCCCC3)CC(=O)N2CCCOCC)cc1OC (stereo unspecified) | inconclusive: 14.3% | 
Cn1nnc2cc(C(=O)N3CCSCC3)ccc21 | inconclusive: -6.3% | 
CC1CCN(CC(=O)N2c3ccccc3CCc3ccccc32)CC1 |  | inactive
CC(C)CCOC(=O)/C=C/c1ccccc1 |  | inactive
COc1cccc(-c2cc(C(=O)Nc3cnn(Cc4ccc(F)cc4)c3)no2)c1 |  | inactive
Cn1cccc1C1(C(F)(F)F)NCCNC1=O (stereo unspecified) | inconclusive: 19.4% | 
O=C(c1cc(-c2cccs2)on1)N1CCN(c2ccc(F)cc2)CC1 | inconclusive: 2.23% | 
O=c1c(-c2cccc(F)c2)nc2cncnc2n1-c1ccccc1 |  | inconclusive: 12.6 µM [rising, partial curve]
COc1ccc(NC(=O)c2ccc(S(=O)(=O)N3CCOCC3)cc2)c(OC)c1 | inconclusive: 3.87% | 
O=C(CCCn1c(=S)[nH]c2cc3c(cc2c1=O)OCO3)N1CCc2ccccc2C1 |  | inactive
Cc1ccc2[nH]c3c(NCc4ccco4)ncnc3c2c1 |  | inactive
Cn1c(=O)c2cc(S(=O)(=O)Nc3ccc4c(c3)OCO4)ccc2n(C)c1=O | inconclusive: -17.1% | 
Cc1ccc(-c2nnc3n2N=C(c2ccccc2)CS3)cc1 |  | inconclusive: 6.31 µM [rising, partial curve]
CCOC(=O)COc1ccc(C(=O)c2ccccc2)c(O)c1 |  | inactive
N#CCC(=O)N1CCn2c1nc1ccccc12 |  | inconclusive: 3.98 µM [falling, partial curve]
COc1cccc(C2C=C(c3cccs3)Nc3ncnn32)c1OC (stereo unspecified) |  | inconclusive: 12.6 µM [falling, partial curve]
CCn1c(-c2ccc(OC)c(OC)c2)n[nH]c1=S |  | inconclusive: 10 µM [rising, partial curve]
O=c1cc(-c2ccccc2)[nH]c2ccccc12 |  | inconclusive: 10 µM [rising, partial curve, poor fit]
COc1ccc(OC)c(C(c2nnnn2Cc2ccccc2)N2CCN(C3CCCCC3)CC2)c1 (stereo unspecified) |  | inconclusive: 5.01 µM [falling, single point]
CN(C)CCCN1c2ccccc2Sc2ccc3ccccc3c21 | inconclusive: 19% [at 7.6 µM] | 

SMILES | activity change, negative = inhibition | Potency
CCN1CCCC(OC(=O)Nc2ccccc2)C1 (stereo unspecified) |  | inactive
COc1cccc(/C(O)=C2/C(=O)C(=O)N(c3cc(C)on3)C2c2cccs2)c1 (stereo unspecified) | inconclusive: 15.2% | 
C[N+]1(CCOS(=O)C23CC4CC(CC(C4)C2)C3)CCOCC1 (stereo unspecified) |  | inactive
Cc1ccc(F)cc1NC(=O)c1cccc(N(C)C)c1 |  | inconclusive: 5.01 µM [falling, single point]
CCOc1ccc(CCNC(=O)C2CCCN(C(=O)N(C)C)C2)cc1OCC (stereo unspecified) | inconclusive: -4.59% | 
COc1ccccc1N1CCN(C(=O)c2ccc3c(=O)n(Cc4ccco4)c(=S)[nH]c3c2)CC1 | inconclusive: 11.9% | 
CCC(c1nnnn1C1CCCC1)N(Cc1cccs1)Cc1cc2cc(C)ccc2[nH]c1=O (stereo unspecified) |  | inactive
COC(=O)c1c(-c2cccs2)csc1NC(=O)c1cccnc1 | inconclusive: 19.9% | 
CN1CCN(S(=O)(=O)c2cccc(C(=O)Nc3sc4c(c3C(N)=O)CCCC4)c2)CC1 |  | active: 0.794 µM
COc1ccccc1N1CCN(C(=O)c2cc(-c3cccc(Cl)c3)on2)CC1 |  | inconclusive: 25.1 µM [falling, single point]
Cc1ccc(CNC(=O)c2cc3c(-c4ccc(Cl)cc4)nn(C)c3s2)o1 |  | inconclusive: 5.01 µM [rising, partial curve]
CNc1ncnc2ccc(-c3ccc4c(c3)OCO4)cc12 |  | inactive
O=C(Nc1cccc(F)c1)N1CCC2(CC1)CCN(C(=O)c1ccncc1)CC2 |  | inactive
NCCC[C@@H](CC(=O)N[C@@H]1CCCC[C@H]1C(=O)N[C@H](CC(=O)N[C@@H](CCC(=O)O)CC(=O)O)Cc1c[nH]c2ccccc12)NC(=O)C[C@H](CO)NC(=O)[C@@H]1CCCC[C@H]1N | inconclusive: -10.2% | 
COc1c(O)cc2c(c1O)[C@@H]1O[C@@H](CO)[C@@H](O)[C@@H](O)[C@@H]1OC2=O |  | inactive
CCOC(=O)N1CCN(C(=O)CSCC(=O)N=c2sc3cc(OC)ccc3n2C)CC1 |  | inconclusive: 15.8 µM [rising, partial curve]
Cc1ccc(C)c2[nH]c(=O)c(CCNC(=O)C(C)(C)C)cc12 | inconclusive: 10.3% | 
CCOC(=O)CSc1nc2ccc(N3CCOCC3)cc2c(=O)n1Cc1ccc2c(c1)OCO2 |  | inconclusive: 6.31 µM [rising, partial curve]
CCOc1cc(S(=O)(=O)N2CCN(Cc3ccccc3)CC2)ccc1Br |  | inactive
Nc1nc(-c2ccco2)nn1C(=O)CCc1ccccc1 |  | inactive
Cc1cc(C)c2[nH]c(=O)c(CN(CC3CCCO3)S(=O)(=O)c3ccc4c(c3)OCCO4)cc2c1 (stereo unspecified) |  | inactive
CCCc1[nH]nc2c1C(c1ccc(OC)c(CSC3=NCCS3)c1)C(C#N)=C(N)O2 (stereo unspecified) |  | inconclusive: 10 µM [rising, single point]
O=C(O)C(Cc1cccs1)C(=O)O | inactive: 15.2% [at 7.6 µM] | 
O=C(CCc1ccccc1)Nc1ncn[nH]1 | inconclusive: 2.71% | 
CCOC(=O)c1cc2c(N)c(C(=O)c3cc(C#N)c(SC)nc3C)sc2nc1C |  | inconclusive: 10 µM [rising, partial curve]
